Results published in PubChem BioAssay AID686978 (National Center for Advancing Translational Sciences (NCATS), 2013).
Screen size: about 420,000 compounds; about 64,000 (15%) were called active. The shares of active, inactive and inconclusive entries below differ from those in the screen. The call rests on the fitted dose curve; in most records, active means well fitted inhibition curve with a large enough effect; inconclusive means small, poorly fitted or top-dose-only effect; inactive means flat fitted curve, though single readings scatter. Potencies of inconclusive entries are left out as doubtful fits.
On the % scale 0 is the no-effect control and ±100 the full control effect; potency means the concentration at half of the fitted maximal effect; tags describe the fitted curve by direction and shape.

Test: qHTS for Inhibitors of human tyrosyl-DNA phosphodiesterase 1 (TDP1): qHTS in cells in absence of CPT; further: nearly all actives have a fitted effect of over 55% in size
Settings: DT40 Tdp1-/- hTDP1 cells, no CPT, ATP luminescence, 48 h; activity change, negative = growth inhibition: at 46.2 µM (top of the series) unless noted
Procedure, shortened: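 Growth kinetics read by CellTiter-Glo luminescence after ≥48 hr at 37 °C. Cells: DT40 Tdp1-/- stably carrying human TDP1, 400 per well, compound exposure in the absence of CPT (DMSO vehicle).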
For COC(=O)c1[nH]c2cc(OC)ccc2c1NC(=O)CCN1CCN(c2cccc(C)c2C)CC1, the Potency was active: 20.6 µM.
With COc1ccc(NC(=O)CCCC(=O)c2ccccc2)c(OC)c1 the “activity change, negative = growth inhibition” value was inactive: -21.1%.
In the case of COc1ccc(C(CNC(=O)c2ccc(Cl)c(S(=O)(=O)N3CCCC3)c2)N2CCCC2)cc1 (configuration not stated), the Potency is reported as inconclusive [inhibitor, partial curve].
With Nc1c(C(=O)Nc2ccc(F)cc2)sc2nc(-c3ccco3)ccc12 the Potency was inconclusive [inhibitor, single point].
For CCCCCN(C(=O)CCC(=O)OCc1ccc(Cl)cc1Cl)c1c(N)n(CCCC)c(=O)[nH]c1=O, the Potency was inconclusive [inhibitor, single point].
For CCn1c(=O)cc(SCC(=O)N2CCN(c3cc(C)ccc3C)CC2)c2ccccc21, the Potency was inconclusive [inhibitor, single point].
In the case of COc1ccccc1C(=O)NNC(=O)c1ccc(O)cc1, the “activity change, negative = growth inhibition” value is reported as inactive: -12.8%.
With COc1ccc(/C=N/N2CCN(C3c4ccccc4-c4ccccc43)CC2)cc1O the Potency was active: 18.4 µM.
For O=C(CCc1ccccc1)NC(=S)Nc1cccc(Br)c1, the “activity change, negative = growth inhibition” value was inactive: 0.554%.
For COc1ccc(Cc2c(-c3ccccc3)nc3ccc(Cl)cn23)c(C)c1, the Potency was inconclusive [inhibitor, partial curve, poor fit].
With Cc1ccc(S(=O)(=O)N2CCCC2CNC(=O)C(=O)Nc2ccc(F)cc2F)cc1 (configuration not stated) the Potency was active: 14.6 µM.
With O=C(CNc1ccc2ccccc2c1)N/N=C/c1cc2ccccc2nc1Cl the Potency was inconclusive [inhibitor, single point].
For Clc1ccccc1-c1nnc2sc(-c3ccncc3)nn12, the “activity change, negative = growth inhibition” value was inactive: -18.3%.
With Cc1nnc(SC(C)C(=O)N(C)C2CCCCC2)n1N (configuration not stated) the “activity change, negative = growth inhibition” value was inactive: 12.8%.
With COc1ccc2oc(=O)c(C(=O)Nc3ccccc3C)cc2c1 the Potency was inconclusive [inhibitor, single point].
With CNC(=O)CCn1nc(-c2ccc(Cl)cc2)c2ccccc2c1=O the Potency was inconclusive [inhibitor, single point].
With CN(C)c1ccc(S(=O)(=O)NCC(=O)OCC(=O)c2ccc[nH]2)cc1[N+](=O)[O-] the “activity change, negative = growth inhibition” value was inactive: 13.3%.
For CCN(CC)S(=O)(=O)c1cc(NC(=O)CO/N=C(\N)c2ccccc2Cl)ccc1C, the Potency was inconclusive [inhibitor, single point].
With CN(Cc1cc(Br)cc(Br)c1N)C1CCCCC1 the Potency was active: 9.44 µM.
In the case of CCN(CC)C1CCN(C(=O)c2cnn(-c3nccc(-c4ccco4)n3)c2C(C)C)C1 (configuration not stated), the “activity change, negative = growth inhibition” value is reported as inactive: 0.942%.
With N#CCCn1cc(C(N)=O)c(-c2ccc3ccccc3c2)n1 the Potency was inconclusive [inhibitor, single point].
With COc1ccc(-c2ccc(C(=O)Nc3ccc(C(C)C)cc3)c3occc23)c(C)c1 the Potency was active: 16.4 µM.
With O=C(CSc1nnc(-c2ccccc2)o1)N1CCCc2ccccc21 the Potency was inconclusive [inhibitor, single point].
With COC(=O)C1=CN(C2CC2)C=C(C(=O)OC)C1c1ccccc1OC the “activity change, negative = growth inhibition” value was inactive: -24.6%.
In the case of CCOC(=O)c1c(NC(=O)Cc2ccccc2)sc2c1CCN(C)C2, the Potency is reported as active: 13 µM.
For Cc1nn(C(C)C(=O)NCc2cccc(F)c2)c(=O)c2c1sc1ccccc12 (configuration not stated), the Potency was inconclusive [inhibitor, single point].
With Cc1nc(-c2ccc(Cl)cc2)sc1C1(C)CC(c2ccncc2)=NO1 (configuration not stated) the Potency was inconclusive [inhibitor, single point].
In the case of COc1ccc(C2C(C(C)=O)=C(O)C(=O)N2c2nccs2)c(OC)c1 (configuration not stated), the Potency is reported as inconclusive [inhibitor, single point].
With CCc1ccc(-c2csc(-c3cc4cc(Br)ccc4oc3=O)n2)cc1 the “activity change, negative = growth inhibition” value was inactive: -23.2%.
With CCc1c(C)nc(SCCOc2ccc(OC)cc2)[nH]c1=O the Potency was inconclusive [inhibitor, single point].
In the case of Cn1c(=O)c(C(=O)Nc2ccccc2S(N)(=O)=O)c(O)c2ccccc21, the Potency is reported as inconclusive [inhibitor, single point].
For CCOC(=O)c1ccc(NC(=O)c2ccco2)cc1, the “activity change, negative = growth inhibition” value was inactive: -4.31%.
With Cc1ccc(C2=NC3(CCCCC3)N=C2SCC(=O)Nc2ccc3c(c2)OCCO3)cc1 the Potency was inconclusive [inhibitor, single point].
In the case of O=C(NC(CC(=O)N1CCN(c2ccccc2)CC1)c1ccccc1)c1ccccc1 (configuration not stated), the Potency is reported as inconclusive [inhibitor, single point].
In the case of CCc1ccc(NC(=O)C2CCCN(S(=O)(=O)c3ccc4c(c3)CC(C)N4C(C)=O)C2)cc1 (configuration not stated), the Potency is reported as active: 25.9 µM.
In the case of O=C(NC1CCCCC1)C(c1ccc(C(F)(F)F)cc1)n1c(=O)c(-c2cc3ccccc3[nH]2)nc2ccccc21 (configuration not stated), the Potency is reported as inconclusive [inhibitor, single point].
In the case of Cc1ccc([N+](=O)[O-])c(C(=O)N/N=C/c2cccnc2)c1, the “activity change, negative = growth inhibition” value is reported as inactive: -11.5%.
With Cc1ccc(C(=O)CSc2nnc(-c3snnc3C)n2C2CC2)cc1 the Potency was inconclusive [inhibitor, single point].
In the case of COc1cc(Cl)ccc1OC1(C)CCN(Cc2cccn2-c2nccs2)C1 (configuration not stated), the Potency is reported as active: 20.6 µM.
With CCOC(=O)N1CCc2c(sc3c2c(=O)n(-c2ccc(Cl)cc2)c(=O)n3CC(=O)Nc2ccccc2)C1 the Potency was inconclusive [inhibitor, single point].
For CN1CCN2c3ncccc3Cc3ccccc3[C@@H]2C1, the “activity change, negative = growth inhibition” value was inactive: -2.52%.
In the case of NC(=O)c1sc2nc(-c3cccnc3)ccc2c1N, the Potency is reported as inconclusive [inhibitor, single point].
For O=C(NCc1ccccc1)C1Cc2c(-c3ccc4c(c3)OCO4)ccnc2O1 (configuration not stated), the Potency was active: 0.731 µM.
With CN(C)c1ccc(-c2nn3c(-c4cccnc4)nnc3s2)cc1 the “activity change, negative = growth inhibition” value was inactive: -16.4%.
For CCOc1ccccc1C(=O)NCC(=O)Nc1ccc(-c2ccccc2)cc1, the Potency was inconclusive [inhibitor, single point].
With COc1ccc(C)cc1NC(=O)C(NS(=O)(=O)c1cccc2nsnc12)c1ccccc1 (configuration not stated) the Potency was inconclusive [inhibitor, single point].
For COc1ccc(C)cc1NC(=S)NN1CCN(C)CC1, the “activity change, negative = growth inhibition” value was inactive: 13%.
For Cc1ccc(Nc2nc(-c3cccnc3)cs2)cc1Cl, the Potency was inconclusive [inhibitor, single point].
With Cc1ccc(C)c(N2CCN(C(=O)Cn3nc(Cc4cccnc4)c4ccccc4c3=O)CC2)c1 the Potency was active: 23.1 µM.
For COc1ccc(-c2cc(C)no2)cc1S(=O)(=O)N1CCN(c2ccc([N+](=O)[O-])cc2)CC1, the “activity change, negative = growth inhibition” value was inactive: 0.203%.
For CCN(Cc1ccncc1)C(=O)C1CCC(=O)N(Cc2ccc(Cl)cc2)C1 (configuration not stated), the “activity change, negative = growth inhibition” value was inactive: 5.46%.
With COc1cccc(NC(=O)CN(c2cccc(C(F)(F)F)c2)S(C)(=O)=O)c1 the “activity change, negative = growth inhibition” value was inactive: -21.3%.
For C[C@@H]1CC=C[C@H]2[C@H]1C(=O)N(Cc1ccccc1)[C@H]2c1ccc(-c2ccoc2)cc1F, the Potency was inconclusive [inhibitor, single point].
With COc1ccc(C(=O)CSc2nc3ccccc3n2CC(=O)NC(C)(C)C)cc1 the activity change, negative = growth inhibition was inconclusive: -31% [inhibitor].
With Cc1ccc(NC(=O)c2ncn(CCCNCCCc3ccccc3)n2)cc1C the Potency was active: 20.6 µM.
For CCN(CC(=O)NC1CCCCC1)S(=O)(=O)c1ccc(Cl)cc1, the activity change, negative = growth inhibition was inconclusive: -31.2% [inhibitor].
In the case of O=C(c1nn2c(C(F)(F)F)cc(-c3ccc(F)cc3)nc2c1Cl)N1CCOCC1, the Potency is reported as inconclusive [inhibitor, single point].
For Cc1cccc(CNC(=O)C2CCN(c3nc4ccc(Cl)cc4[nH]3)CC2)c1, the Potency was inconclusive [inhibitor, single point].
For CCCCCCCCN1C(=O)C(O)=C(C(C)=O)C1c1ccccn1 (configuration not stated), the Potency was inconclusive [inhibitor, single point].
In the case of COc1ccc(NC(=O)c2ccccc2N(Cc2ccccc2)S(C)(=O)=O)c(OC)c1, the Potency is reported as inconclusive [inhibitor, partial curve, poor fit].
For CN(C(=O)c1cccs1)c1ccc(OCC(=O)N2CCC(C(N)=O)CC2)cc1, the Potency was inconclusive [inhibitor, partial curve].
In the case of COc1ccc(-c2cc(=O)oc3cc(OCC(=O)Nc4ccc(CCO)cc4)ccc23)cc1, the Potency is reported as active: 0.517 µM.
In the case of CCn1cc(CN2CCC(C(=O)Nc3cccc(-c4cccc(Cl)c4)c3)CC2)cn1, the Potency is reported as inconclusive [inhibitor, single point].
In the case of O=C(CN(C(=O)CCC(=O)Nc1nccs1)c1ccc2c(c1)OCO2)NCc1ccccc1, the “activity change, negative = growth inhibition” value is reported as inactive: -15%.
With CCCC1(C(=O)OCC)NC(c2ccc(N(C)C)cc2)C2C(=O)N(c3ccc(OCC)cc3)C(=O)C21 (configuration not stated) the “activity change, negative = growth inhibition” value was inactive: -0.386%.
With CCOc1cc(/C=C2\C(=O)N(CCc3ccc(OC)c(OC)c3)C(C)=C2C(=O)OC)ccc1O the Potency was active: 23.1 µM.
For CCOC(=O)c1cc(C#N)c(Oc2cccc(C(F)(F)F)c2)nc1-c1ccccc1, the Potency was inconclusive [inhibitor, single point].
In the case of Cc1cc(-c2nnc3n2N=C(c2ccc(-c4ccccc4)cc2)CS3)n[nH]1, the Potency is reported as active: 14.6 µM.
In the case of O=C(CN(C(=O)c1csnn1)c1cccc(F)c1)NCc1ccc2c(c1)OCO2, the “activity change, negative = growth inhibition” value is reported as inactive: -21%.
With Cn1cnc2c(F)c(Nc3ccc(Br)cc3Cl)c(C(=O)NOCCO)cc21 the “activity change, negative = growth inhibition” value was inactive: 2.97%.
In the case of COc1ccc(C(=O)Cn2nnc(-c3ccccc3NC(=O)C3CC3)n2)cc1, the Potency is reported as active: 16.4 µM.
In the case of CC(C)Oc1ccc(C(=O)NCC2Cc3cc(F)cc(-c4cnccn4)c3O2)cc1 (configuration not stated), the Potency is reported as inconclusive [inhibitor, single point].
